In PubChem BioAssay AID1671193 (National Center for Advancing Translational Sciences (NCATS), 2021):
The whole screen tested about 150,000 compounds, of which about 180 (0.12%) were called active. Inconclusive results, whose numbers are uncertain, are shown with a selection of clear calls. Calls come from the whole dose curve; as a rule, active = well fitted cell-killing curve with a large enough effect; inconclusive = small, poorly fitted or top-dose-only effect, or effect the other way; inactive = flat fitted curve, though single readings scatter. A potency beside an inconclusive call is a rough fit, not a confirmed value.

Assay: GF-AFC viability counterscreen for inhibitors of alpha-synuclein gene (SNCA) expression; note: nearly all actives have a fitted effect of over 30% in size;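 for activity change, negative = cytotoxicity: 0% = DMSO-treated cells and -100% = medium-only wells without cells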
Conditions: HEK-293-SNCA-luc viability, GF-AFC fluorescence, 24 h; activity change, negative = cytotoxicity: at 57.1 µM (top of the series) unless noted
Method in brief: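 Cytotoxicity counterscreen: after 24 h compound treatment of genome-edited SNCA-luciferase HEK-293 cells, live-cell protease substrate GF-AFC read by fluorescence after 30 min; activity scaled between DMSO (0%) and medium-only (-100%), curves Hill-fitted.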
Potency is the fitted concentration of half-maximal effect; tags give direction and shape of the fitted curve.

Row | SMILES | activity change, negative = cytotoxicity | Potency
1 | O=c1cc(-c2cccnc2)oc2c(-c3ccccc3F)nccc12 | inactive: -16.6% [at 87.6 µM] | 
2 | O=C([C@@H]1C[C@H](F)CN1S(=O)(=O)Cc1ccccc1Cl)N1CCc2ccccc2C1 |  | inconclusive: 39.8 µM [cytotoxic, single point]
3 | COC[C@H](NC(=O)c1cnc(C)s1)C(=O)N[C@@H](COC)C(=O)N[C@@H](Cc1ccccc1)C(=O)[C@@]1(C)CO1 |  | inconclusive: 1.52 µM [cytotoxic, full curve, poor fit]
4 | C[C@]1(OC(=O)/C=C/c2ccccc2)C[C@H](O)[C@]2(O)C=CO[C@@H](O[C@@H]3O[C@H](CO)[C@@H](O)[C@H](O)[C@H]3O)C12 (some centres undefined) |  | inconclusive: 1.64 µM [cytotoxic, full curve, poor fit]
5 | NCCc1ccc(CN2C[C@@H]3CC[C@H](C2)N(Cc2ccccc2)C3)cc1 |  | inconclusive: 14.1 µM [cytotoxic, partial curve, poor fit]
6 | COc1ccc(CNC(=O)[C@H]2CCC[C@H]2NC(=O)c2ccc(OC)cc2)cc1 |  | inconclusive: 14.1 µM [cytotoxic, partial curve, poor fit]
7 | COc1ccc(CNC2(Cc3cc(CN(C)Cc4ccccc4)on3)COC2)c(O)c1 | inactive: 3.09% [at 87.6 µM] | 
8 | Cc1ccc2c(=O)c(C(=O)c3ccc(F)cc3)cn(CC(=O)Nc3ccc4c(c3)OCCO4)c2n1 |  | inconclusive: 10 µM [cytotoxic, partial curve, poor fit]
9 | CC(=O)Nc1ccccc1-c1c(C)nn2c1N(C(=O)c1ccc(Oc3ccccc3)cc1)CCC2 |  | inconclusive: 12.6 µM [cytotoxic, partial curve, poor fit]
10 | COc1ccccc1OCC(=O)c1ccc2c(c1)N(CC(=O)N(C)Cc1ccccc1)C(=O)CO2 |  | inconclusive: 3.98 µM [cytotoxic, full curve, poor fit]
11 | Cc1noc(/C=C/c2ccccc2F)c1S(=O)(=O)N1CCC(C(=O)NCC(C)c2ccccc2)CC1 (centres undefined) | inactive: 3.86% | 
12 | CC(C)CCN1CCCC2(C1)NC(=O)c1ccccc1O2 (centres undefined) |  | inconclusive: 3.16 µM [cytotoxic, partial curve, poor fit]
13 | Cc1noc(C)c1[S+](=O)([O-])NC1CCCN(Cc2ccc(-c3cncnc3)cc2)C1 (centres undefined) | inactive: -1.56% [at 12.5 µM] | 
14 | CCOC(=O)c1c(NC(=O)COc2cccc(C)c2C)sc2c1CCC(CC)C2 (centres undefined) |  | inconclusive: 12.6 µM [cytotoxic, partial curve, poor fit]
15 | COc1ccc(-c2c(C)c3ccc(O)c(CN4CCN(CCO)CC4)c3oc2=O)cc1OC |  | inconclusive: 28.2 µM [rising, partial curve]
16 | CC(C)(C)OC(=O)N1CCC(c2c(C(=O)NCCc3ccccc3)cnn2-c2ccc(F)cc2F)CC1 |  | inconclusive: 28.2 µM [cytotoxic, single point]
17 | CCCCS(=O)(=O)c1oc(-c2ccc(F)cc2)nc1S(=O)(=O)c1ccc(C)cc1 |  | inconclusive: 35.5 µM [cytotoxic, single point]
18 | COC(=O)N1CCN(c2nc3ncccc3o2)CC1 | inactive: -6.12% [at 87.6 µM] | 
19 | COC(=O)[C@@H]1Cc2ncn(Cc3ccc(Cl)cc3)c2CN1S(=O)(=O)c1cccs1 |  | inconclusive: 39.8 µM [cytotoxic, single point]
20 | CCCN(CC1CCOC1)S(=O)(=O)c1cccc(Br)c1 (centres undefined) |  | inconclusive: 3.55 µM [cytotoxic, full curve, poor fit]

Row | SMILES | activity change, negative = cytotoxicity | Potency
21 | Cc1ccc2[nH]c(=O)c3cc(C(=O)NCCCN4CCC(C)CC4)sc3c2c1 |  | inconclusive: 28.2 µM [cytotoxic, partial curve, poor fit]
22 | COc1ccc(C(=O)NCC(c2ccc(N(C)C)cc2)N2CCc3ccccc32)cc1OC (centres undefined) |  | inconclusive: 35.5 µM [cytotoxic, single point]
23 | COc1cccc(Cn2c(=O)c(-c3ccccc3)nc3cnc(N4CCN(C)CC4)nc32)c1 |  | inconclusive: 10 µM [rising, partial curve, poor fit]
24 | COc1cc(OC)cc(-c2onc(C)c2C(=O)NCCc2ccc(F)cc2)c1 |  | inconclusive: 39.8 µM [cytotoxic, single point]
25 | Cn1ccnc1C(=O)N1C[C@@H](Oc2cccnc2)C[C@H]1C(=O)NC1CC1 |  | inconclusive: 8.91 µM [cytotoxic, single point]
26 | CCc1cccc(C)c1NC(=O)Cn1nc(C)c2nn(-c3ccc(Cl)cc3)c(C)c2c1=O |  | inconclusive: 1.41 µM [cytotoxic, full curve, poor fit]
27 | CCc1ccc(NC(=O)CN(c2cc(C)cc(C)c2)S(=O)(=O)c2c(C)[nH]c(=O)[nH]c2=O)cc1 | inactive: -5.9% | 
28 | CCN(CC)C(=O)CSc1nc(-c2ccc(C)cc2)nc2c1Cc1c(CO)cnc(C)c1O2 |  | inconclusive: 31.6 µM [cytotoxic, single point]
29 | Cc1cccc(NC(=O)c2cc3n(n2)CC(c2ccc(Cl)cc2)OC3)c1 (centres undefined) | inactive: 5.98% | 
30 | c1ccc(Oc2ccc(Nc3cnc4ccc(N5CCOCC5)nn34)cc2)cc1 | inactive: 6.66% [at 87.6 µM] | 
31 | CC(=O)c1cccc(NC(=O)Cn2c(=O)n(-c3ccccc3)c(=O)c3c2cc(C)n3C)c1 |  | inconclusive: 8.91 µM [cytotoxic, single point]
32 | CC(C)(C)c1ccc(C(=O)Nc2onc3c2CCCC3)cc1 |  | inconclusive: 17.8 µM [cytotoxic, single point]
33 | c1ccc(CCN2CCNc3cc(N4CCN(c5ccccn5)CC4)ncc3C2)cc1 |  | inconclusive: 15.8 µM [cytotoxic, partial curve]
34 | COc1ccc(NC(=O)C2(C)CCCc3cnc(Nc4cccnc4)nc32)cc1 (centres undefined) |  | inconclusive: 12.6 µM [cytotoxic, partial curve, poor fit]
35 | CN(Cc1ccccc1)Cc1nnc(C(=O)N2CCC[C@@H]2c2cccc(F)c2)n1-c1ccccc1 | inactive: -15.5% | 
36 | COc1cccc(NC(=O)CSc2c3c(nc4ccccc24)CCCC3)c1 |  | inconclusive: 25.1 µM [cytotoxic, single point]
37 | Cc1nn2c(c1-c1ccccc1-c1ccccc1)N(CC1CC1)CCC2 |  | inconclusive: 3.16 µM [cytotoxic, full curve, poor fit]
38 | COc1ccc(CN2C(=O)[C@@H]3C[C@@H](CN3Cc3ccccc3)Oc3ccccc32)cc1 |  | inconclusive: 56.2 µM [cytotoxic, single point]
39 | CCOC(=O)c1ccccc1NC(=O)COC(=O)CC(C)(C)CC1=NS(=O)(=O)c2ccccc2N1 |  | inconclusive: 20 µM [cytotoxic, single point]
40 | O=C(O)c1c(Cl)c(Cl)c(Cl)c(Cl)c1-c1c2cc(I)c(=O)c(I)c-2oc2c(I)c(O)c(I)cc12 |  | inconclusive: 24.1 µM [cytotoxic, partial curve]

Row | SMILES | activity change, negative = cytotoxicity | Potency
41 | Cc1cccc(-c2noc([C@@H]3Cc4nc[nH]c4CN3C(=O)Nc3cccc(C#N)c3)n2)c1 |  | inconclusive: 28.2 µM [cytotoxic, partial curve, poor fit]
42 | COc1ccc(-c2cc(C(=O)NCCc3ccc(OC)c(OC)c3)c3c(-c4ccc(F)cc4)[nH]nc3n2)cc1 |  | inconclusive: 7.08 µM [rising, single point]
43 | CCNC(=O)N[C@H]1C[C@@H](Cc2cc(COc3ccccc3)on2)C1(C)C | inactive: -10.2% [at 87.6 µM] | 
44 | CC(=O)Nc1cccc(NC(=O)CSc2ccc(-c3sc(-c4ccccc4)nc3C)nn2)c1 |  | inconclusive: 44.7 µM [cytotoxic, partial curve, poor fit]
45 | CCC1Oc2ccc(NC(=O)c3c(F)cccc3F)cc2CN(CCc2ccc(F)cc2)C1=O (centres undefined) | inactive: 6.09% | 
46 | Cc1cccc(Nc2nnc(-c3ccc(C)c(S(=O)(=O)N4CCN(C)CC4)c3)c3ccccc23)c1 |  | inconclusive: 35.5 µM [cytotoxic, single point]
47 | COC(=O)CNC(=O)N1CCCN(Cc2ccncc2)C(c2ccccc2)CC(=O)NCC1 (centres undefined) | inactive: -3.8% | 
48 | COc1ccc(S(=O)(=O)NC[C@H]2COCc3nc4ccc(C)cc4n32)cc1 | inactive: -21.9% [at 87.6 µM] | 
49 | C[C@@H]1CN(c2cc(C3CC(O)C3)ncn2)C[C@H](C)O1 (some centres undefined) | inactive: -3.29% | 
50 | O=C1C(Cc2ccc(O)cc2)N2C(=O)CCN(C(=O)NCc3ccccc3)C2CN1Cc1cccc2ccccc12 (centres undefined) |  | inconclusive: 3.77 µM [cytotoxic, full curve]
51 | COc1ccc(CC(=O)NC2CCc3nnc(C)n3CC2)cc1 (centres undefined) | inactive: -3.73% | 
52 | O=C(CCC1CCCC1)NC1CCN(c2cnn(Cc3ccccc3)c(=O)c2)CC1 |  | inconclusive: 5.62 µM [cytotoxic, single point]
53 | CC1(C)CC[C@]2(C(=O)O)CC[C@]3(C)C(=CCC4[C@@]5(C)CC[C@H](O[C@@H]6O[C@H](C(=O)O)[C@@H](O)[C@H](O)[C@H]6O)C(C)(CO)C5CC[C@]43C)C2C1 (some centres undefined) | inactive: -16.8% [at 23.9 µM] | 
54 | CC(=O)N1CCc2c(sc3c2c(=O)n(-c2ccc(C)cc2)c(=O)n3Cc2ccccc2C)C1 |  | inconclusive: 22.4 µM [cytotoxic, partial curve, poor fit]
55 | COc1ccc(CNC(=O)C[C@@H]2C[C@@H](C(C)C)[C@H](CNC(C)=O)C=C2C)cc1 | inactive: -28.3% [at 87.6 µM] | 
56 | COCCN1Cc2ccc(NCC(C)C)nc2C(C)(C(=O)Nc2ccc(OC)cc2)C1 (centres undefined) |  | inconclusive: 56.2 µM [cytotoxic, single point]
57 | NCCC[C@@H](N)C(=O)N1CCCC(c2ccccc2)(c2ccccc2)C1 |  | inconclusive: 12.6 µM [cytotoxic, partial curve, poor fit]
58 | Cc1cccc(OCCCn2c(CCNC(=O)C3CCCCC3)nc3ccccc32)c1 |  | inconclusive: 39.8 µM [cytotoxic, single point]
59 | COc1cccc(-c2nc(SCC(=O)Nc3ccc4c(c3)OCCO4)c(-c3ccc(C)cc3)[nH]2)c1 |  | inconclusive: 28.2 µM [cytotoxic, single point]
